The record followed here is PubChem BioAssay AID360 (National Center for Advancing Translational Sciences (NCATS), 2006).

About 550 (1.1%) of roughly 48,000 compounds were called active. Roughly 4% stayed inconclusive and do not appear here. Cut-off read from the data, not from the text of the source: active = potency below about 15 µM; inconclusive = mostly about 16 µM to 33 µM; inactive = weaker than that. The list shows a part of the results.
Potency is the fitted concentration of half-maximal effect.

The target of the test is Lysosomal acid glucosylceramidase (Homo sapiens) (UniProt P04062). The test is described as follows: Glucocerebrosidase.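 Note: the screen sought inhibitors.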 The settings on record: purified enzyme, resorufin glucoside fluorescence (screen aimed at inhibitors), 20 min. The gist of the method: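 Compounds titrated against 0.2 nM normal enzyme, 30 uM resorufin beta-D-glucopyranoside substrate, citrate/phosphate buffer with taurocholate and tween-20, pH 5.9. Reaction ran 20 min at room temperature; fluorescence (Ex 548/Em 600) gave AC50.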
Chain of UniProt P04062 (P04062 whole entry, looked up): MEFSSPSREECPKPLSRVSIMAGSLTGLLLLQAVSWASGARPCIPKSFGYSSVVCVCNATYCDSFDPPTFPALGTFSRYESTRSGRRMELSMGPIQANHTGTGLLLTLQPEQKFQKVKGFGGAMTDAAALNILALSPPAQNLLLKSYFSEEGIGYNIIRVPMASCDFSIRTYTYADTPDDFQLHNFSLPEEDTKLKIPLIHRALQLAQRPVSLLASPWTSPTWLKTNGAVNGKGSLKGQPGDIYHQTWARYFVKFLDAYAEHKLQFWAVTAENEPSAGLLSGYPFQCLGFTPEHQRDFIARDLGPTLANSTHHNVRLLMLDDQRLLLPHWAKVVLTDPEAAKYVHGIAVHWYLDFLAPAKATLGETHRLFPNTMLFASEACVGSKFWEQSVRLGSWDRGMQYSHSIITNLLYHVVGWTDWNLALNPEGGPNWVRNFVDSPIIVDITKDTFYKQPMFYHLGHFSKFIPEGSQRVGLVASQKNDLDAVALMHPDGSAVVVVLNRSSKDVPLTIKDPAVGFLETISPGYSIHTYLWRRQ
As to `O=C1CSC(c2ccccc2F)N1CCN1CCCCC1` (stereo not drawn), the Potency was inactive: > 76.9 µM.
In the case of `COc1cccc(C2CC(C(F)(F)F)n3nc(C(=O)NCc4cccnc4)cc3N2)c1` (stereo not drawn), the Potency was inactive: > 76.9 µM.
Then `Cc1cc(NS(=O)(=O)c2ccc(NC(=O)Nc3ccc4c(c3)OCO4)cc2)no1`, with inactive: > 76.9 µM; and `O=S(=O)(c1cccc(-c2nnc(SC(F)F)n2-c2ccccc2)c1)N1CCCCC1`, with inactive: > 76.9 µM; and `Cc1sc2nc(N)sc2c1C`, with inactive: > 76.9 µM.
Then `O=C(COC(=O)c1cncc(Br)c1)NCCC1=CCCCC1`, with inactive: > 76.9 µM.
Then `Cn1cnnc1SCC(=O)c1cc2ccccc2oc1=O`, with inactive: > 76.9 µM; and `CC(C)(C)NC(=O)c1sccc1C(=O)O`, with inactive: > 76.9 µM.
Turning to `CC(NC(=O)COc1ccccc1)C(=O)OCC(=O)c1cc2ccccc2o1` (stereo not drawn), the Potency is inactive: > 76.9 µM.
Then `COC(=O)C1CCN(C(=O)N2CCOCC2)CC1`, with inactive: > 76.9 µM.
The same measure for `Cn1c(SCC(=O)Nc2nccs2)nnc1C12CC3CC(CC(C3)C1)C2`: inactive: > 76.9 µM; for `CCOc1ccc(N2C(=O)CC(Sc3nc(C)cc(C)c3C#N)C2=O)cc1` (stereo not drawn): inactive: > 76.9 µM; for `CCN(CC)CCn1c2ccccc2c2cnc(N=CN(C)C)c(C#N)c21`: inactive: > 76.9 µM.
As for `O=C(CCN1CCN(c2ccccc2)CC1)Nc1nccs1`, the Potency is inactive: > 76.9 µM.
As for `Cc1nc2ccc(S(=O)(=O)NCC(=O)O)cc2s1`, the Potency is inactive: > 76.9 µM.
The same measure for `Cc1sc2ncnc(SCC(=O)N3CCCC3=O)c2c1C`: inactive: > 76.9 µM; for `CCOC(=O)c1cnc2c(C(=O)OC)cccc2c1NCc1ccco1`: inactive: > 76.9 µM.
`CS(=O)(=O)Nc1ccc(C(=O)NCc2ccco2)cc1`: the Potency is inactive: > 76.9 µM.
The same measure for `Cc1cccc(OCc2nc(C#N)c(NCc3ccc4c(c3)OCO4)o2)c1`: inactive: > 76.9 µM.
The same measure for `Cc1cc2oc(C(=O)NC3CCS(=O)(=O)C3)c(C)c2cc1C` (stereo not drawn): inactive: > 76.9 µM; for `Cc1nc(C)n(CC(O)COc2ccc(C(=O)c3ccccc3)cc2)n1` (stereo not drawn): inactive: > 76.9 µM; for `CCCc1nnc(SCC(=O)O)n1/N=C/c1ccc2c(c1)OCO2`: inactive: > 76.9 µM.
Then `COc1ccc(NC2=NCCC(=O)N2Cc2cccs2)cc1`, with inactive: > 76.9 µM.
For the compound `Cn1c(=O)[nH]c(=O)c2c1nc(NCCCn1ccnc1)n2CCOc1ccccc1`, the Potency was inactive: > 76.9 µM.
The same measure for `N#Cc1c(N)sc2c1CCN(C(=O)OCc1ccccc1)C2`: inactive: > 76.9 µM.
The same measure for `CCOC(=O)CSc1nnc(Cn2nnc(-c3ccccc3)n2)n1C`: inactive: > 76.9 µM; for `Cc1cc2ccccc2nc1SCC(=O)N1CCCC1`: inactive: > 76.9 µM.
Then `Cc1nnc(SCc2cn3ccsc3n2)n(N)c1=O`, with inactive: > 76.9 µM; and `O=C(Nc1ccc(Cl)cc1)NC1(C(=O)NCCCN2CCOCC2)CCCCC1`, with inactive: > 76.9 µM; and `c1ccc(-c2noc(-c3cccnc3)n2)nc1`, with inactive: > 76.9 µM.
Regarding `CCn1c(=O)c(C(=O)Nc2cccnc2)c(O)c2ccccc21`, the Potency was inactive: > 76.9 µM.
As for `COc1ccc(-c2noc(CCC(=O)NCc3cccnc3)n2)cc1`, the Potency was inactive: > 76.9 µM.
With `O=C(O)C(CCCCN1C(=O)C2C3C=CC(C3)C2C1=O)N1C(=O)C2C3C=CC(C3)C2C1=O` (stereo not drawn), the Potency is inactive: > 76.9 µM.
The same measure for `CC(OC(=O)c1cccs1)C(=O)NCc1cccs1` (stereo not drawn): inactive: > 76.9 µM.
The same measure for `O=P1(O)C=C(c2ccccc2)NC(c2ccccc2)=C1`: inactive: > 76.9 µM; for `CN(C)S(=O)(=O)c1ccc(C(=O)NCc2ccccc2)cc1`: inactive: > 76.9 µM.
Then `CCOC(=O)C1CCCN(C(=O)Cc2c(F)cccc2Cl)C1` (stereo not drawn), with inactive: > 76.9 µM.
Take `COCCCN(C(C)=O)c1nc(-c2ccccc2)cs1`: the Potency was inactive: > 76.9 µM.
With `Cc1nc2cccc(C(=O)NCc3ccccc3)c2o1`, the Potency was inactive: > 76.9 µM.
Then `Cc1ccc(-c2nc(CN(C)C)cc(CN(C)C)c2O)cc1`, with inactive: > 76.9 µM; and `CC(C)(C)Nc1nc(C(N)=O)nc(N2CCOCC2)n1`, with inactive: > 76.9 µM; and `CC1Cc2cc(/C(O)=C3/C(=O)C(=O)N(CCN4CCOCC4)C3c3cccc(O)c3)ccc2O1` (stereo not drawn), with inactive: > 76.9 µM.
Then `Cc1c(/C(O)=C2\C(=O)C(=O)N(CCCN(C)C)C2c2ccncc2)cnn1-c1ccccc1` (stereo not drawn), with inactive: > 76.9 µM; and `O=C(CNC(=O)c1cccs1)OCC(=O)c1cccs1`, with inactive: > 76.9 µM.
Consider `Cc1ccc(NC(=O)Cn2c(=O)n(Cc3ccco3)c(=N)c3c4c(sc32)COC(C)(C)C4)cc1`, for which the Potency is inactive: > 76.9 µM.
Take `O=c1[nH]c(SCc2n[nH]c(=S)n2-c2ccccc2)nc2ccccc12`: the Potency was inactive: > 76.9 µM.
As to `Cc1onc(-c2ccccc2)c1C(=O)Nc1sc2c(c1C(N)=O)CCC2`, the Potency was inactive: > 76.9 µM.
The same measure for `O=C(NCc1ccccn1)C1CCN(S(=O)(=O)N2CCCC2)CC1`: inactive: > 76.9 µM; for `CCOC(=O)N1CCC(NC(=O)C2CCN(S(=O)(=O)c3cccs3)CC2)CC1`: inactive: > 76.9 µM.
`Cc1ccc(C)c(-n2c(SCC(=O)NCC3CCCO3)nnc2-c2ccoc2C)c1` (stereo not drawn): the Potency is inactive: > 76.9 µM.
Then `O=C(CCn1nnc2ccccc21)N1CCN(c2ccccc2)CC1`, with inactive: > 76.9 µM; and `COc1ccc(CCN2C(=O)CC(NCc3ccc4c(c3)OCO4)C2=O)cc1OC` (stereo not drawn), with inactive: > 76.9 µM.
The same measure for `CCC(CC)C(=O)NCCc1cc2c(OC)ccc(OC)c2[nH]c1=O`: inactive: > 76.9 µM; for `O=C(NC1CCCCCC1)C1CCN(S(=O)(=O)c2ccccc2)CC1`: inactive: > 76.9 µM; for `Cc1cc(NC(=O)c2cc(-c3cccnc3)nc3c(C)c(C)ccc23)no1`: inactive: > 76.9 µM.
Then `Cc1nc2oc3c(NCC4CCCO4)ncnc3c2c2c1COC(C)(C)C2` (stereo not drawn), with inactive: > 76.9 µM; and `CSc1nsc(SCC(=O)N2CCN(c3ccccc3)CC2)n1`, with inactive: > 76.9 µM; and `COc1cccc2cc(C(=O)C3=C(O)C(=O)N(Cc4ccco4)C3c3cccnc3)oc12` (stereo not drawn), with inactive: > 76.9 µM.
